Data: publication PMC4207660, “Identification and Characterization of Hundreds of Potent and Selective Inhibitors of Trypanosoma brucei Growth from a Kinase-Targeted Library Screening Campaign” (PLoS Neglected Tropical Diseases, 2014)
≈ marks a conversion by molar mass, not a printed value. Like-named read-outs stand apart in the source and are kept apart here.

Columns and labels:
[1] = system: T. brucei brucei parasites (Lister 427 strain); experiment: Dose response growth inhibition assay (resazurin, 72 h); assay type: cell-based; settings: Trypanosoma brucei; T. b. brucei growth inhibition; read-out: Tbb pEC50 (converted)
Description: Greiner sterile black clear bottom 384-well assay plates were pre-dispensing with 200 nL of compound in each well, from master plates at 1 mM (100% DMSO) containing selection from the GSK compound collection. Controls of 0% response (control 1, 200 nL of 100%DMSO) and 100% response (control 2, 200 nL of 1 mM pentamidine) were included in each assay plate in columns 6 and 18, respectively. Plates containing 200 nL of 100% DMSO were included randomly in the assay, to assess quality through all process. […] After this period, 10 µL of 200 µM resazurin solution in prewarmed HMI-9 were added to each well, and plates were allowed to incubate 2 hours more prior fluorescence reading in a Wallac EnVision Multilabel Plate Reader (Perkin-Elmer). Raw fluorescent data from the Envision plate reader were uploaded into GSK HTS database (ActivityBase). Activity of each well was normalized as a percentage of inhibition per-plate basis using the following equation: [drawing 1]
For dose-response experiments, serial compound dilutions of selected hits from the primary campaign were plotted against compound concentration. Dose response master plates were prepared by 3-fold dilutions (starting with 10 mM DMSO stock solutions), providing 11 concentrations. From these master plates, 200 nL per well was stamped in final assay plates, including the same controls describe in the primary single shot assay. Compounds were dispensed as serial dilution curve format, with 11 points at 3-fold dilution and 40 µM as starting top concentration (n = 2). Growth inhibition assay was performed as described in previous assay.
A 4-parameter equation describing a sigmoidal dose-response curve was then fitted with an adjustable baseline using ActivityBase XE Runner software. Fitting of dose-response curves and EC50 determination were normalized as percentage of inhibition based on controls. The curve-fit model was based on a 4-parameter equation: [drawing 2]
Trypanosome cell culture. […]

Cytochrome P450 (CYP450) = Cytochrome P450 (CYP450) (Homo sapiens, UniProt P08684); experiment: Cytochrome P450 inhibition profile; assay type: in vitro ADME; settings: Measured
Description: The P450 inhibition profile of the inhibitors was determined as previously described.

ChromlogD assay = experiment: ChromlogD assay
Description: The Chromatographic Hydrophobicity Index (CHI)[22] values were measured using reversed phase HPLC column (Luna C18 (2), Phenomenex, UK) with a fast acetonitrile gradient at starting mobile phase of pH = 7.4. CHI values are derived directly from the gradient retention times by using a calibration line obtained for standard compounds. The CHI value approximates to the volume % organic concentration when the compound elutes. […] The average error of the assay is ±3 CHI unit or ±0.25 ChromlogD.

[2] = molecular target: T1, Human Serum Albumin (HSA) (Homo sapiens, UniProt P02768); experiment: Protein binding assay (HPLC stationary phase), HSA; assay type: in vitro ADME; settings: Measured
T1 construct: purchased Chiral Technologies, France
Description: Chemically bonded Human Serum Albumin (HSA) and Alpha-1-acidglycoprotein HPLC stationary phases (Chiral Technologies, France) were used for measuring compounds' binding to plasma proteins, applying linear gradient elution up to 30% iso-propanol. The run time was 6 min, including the re-equilibration of the stationary phases with the 50 mM pH7.4 ammonium acetate buffer. The obtained gradient retention times were standardised using a calibration set of mixtures as described in the references. The average standard error of the assay depends on the binding strength and kinetics of the compounds.

[3] = CLND kinetic solubility assay; assay type: physicochemical; settings: phosphate buffered saline, pH 7.4, aqueous buffer, kinetic from dmso stock; Measured; read-out: Aq Sol
Description: 5 µL of 10 mM DMSO stock solution was diluted to 100 µL with pH 7.4 phosphate buffered saline, equilibrated for 1 hour at room temperature, filtered through Millipore MultiscreenHTS-PCF filter plates (MSSL BPC). The filtrate was quantified by suitably calibrated flow injection Chemi-Luminescent Nitrogen Detection.

[4] = CYP3A4, VG substrate, read-out: CYP3A4VG pXC50 (converted)
[5] = CYP3A4, VR substrate, read-out: CYP3A4VR pXC50 (converted)

With NC(=O)c1ccccc1Nc1nc(NC2CCN(S(=O)(=O)C3CC3)CC2)ncc1Br [NEU-0001133] the EC50 [1] was 2 nM, the IC50 (Cytochrome P450 (CYP450); [4]) was 6.31 µM and the IC50 (Cytochrome P450 (CYP450); [5]) was 12.6 µM. The PFI (ChromlogD assay) was 5.55, the HSA % binding [2] was 91.99% and the solubility kinetic at 1 h [3] was 4 µM (≈ 1.98 µg/mL).
In the case of O=S1(=O)Cc2ccc(Nc3nccc(-c4ccc(F)cc4)n3)cc2C1 [NEU-0001142], the HSA % binding [2] is reported as 96.02%.
For CC(C)Nc1nc(Nc2ccc(S(N)(=O)=O)cc2)ncc1Cl [NEU-0001173], the EC50 [1] was 79.4 nM, the IC50 (Cytochrome P450 (CYP450); [4]) was 12.6 µM and the IC50 (Cytochrome P450 (CYP450); [5]) was 25.1 µM. For the same compound, the HSA % binding [2] was 92.8% and the solubility kinetic at 1 h [3] was 340 µM (≈ 116 µg/mL).
In the case of NC(=O)c1ccccc1Nc1nc(Nc2cc[nH]n2)ncc1Cl [NEU-0001135], the EC50 [1] is reported as 126 nM, the IC50 (Cytochrome P450 (CYP450); [4]) is reported as 3.16 µM and the IC50 (Cytochrome P450 (CYP450); [5]) is reported as 0.794 µM. The solubility kinetic at 1 h [3] was 15 µM (≈ 4.95 µg/mL).
